One assay deals with human TGF-β protein (human, UniProt P01137 in part, The mature TGF-β1 is a disulfide-linked homodimer; one protomer is given.). Nature of the assay: cell-based or functional assay.
The target of assay [1] is T1, human TGF-β1 protein (human, UniProt P01137 in part).
T1 construct: also called human TGF-β1 protein (Acro, TG1-H4212); recombinant human TGF-β1
Nature of the assay: ELISA, molecule titrated on coated human TGF-β1, OD450 nm; left panel. The text has this: After washing, the plates were developed with TMB substrate and analyzed by spectrophotometer at OD 450 nm.

Assay [2] has as its target T1, human TGF-β1 protein. Put plainly: ELISA, molecule titrated on coated human TGF-β1, anti-human IgG Fc-HRP, OD 450nm.
Assay [3] concerns the target T2, human PD-L1-his tag protein (human, UniProt Q9NZQ7 in part).
T2 construct: also called human PD-L1-His protein; recombinant PD-L1 protein; not shown: his tag
Put plainly: SPR (Biacore T200), molecule captured on Protein A chip, PD-L1-his injected. The procedure:
A serial dilution of human PD-L1-his tag protein was injected over captured antibody for 2 mins at a flow rate of 30 μl/min. The antigen was allowed to dissociate for 1500 s. All the experiments were carried out on a Biacore T200. Data analysis was carried out using Biacore T200 evaluation software.

T1 sequence (P01137 279-390 limits assumed): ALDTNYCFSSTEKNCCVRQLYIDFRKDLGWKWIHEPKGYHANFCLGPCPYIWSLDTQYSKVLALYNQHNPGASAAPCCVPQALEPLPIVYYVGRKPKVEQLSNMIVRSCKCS
T2 sequence (Q9NZQ7 19-238 limits assumed): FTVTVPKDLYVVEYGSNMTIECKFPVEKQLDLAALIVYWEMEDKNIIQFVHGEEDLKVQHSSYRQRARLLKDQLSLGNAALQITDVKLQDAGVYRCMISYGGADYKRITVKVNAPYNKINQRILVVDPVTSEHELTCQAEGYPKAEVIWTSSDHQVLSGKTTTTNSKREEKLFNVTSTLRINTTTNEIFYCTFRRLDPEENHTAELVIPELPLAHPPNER
human TGF-β protein, sequence (P01137 279-390 limits assumed): as the sequence (P01137 279-390 limits assumed) above

B1: LP008-02-2 (other)
heavy: EVQLVQSGAEVKKPGASVKVSCKASGYTFTDFWVSWVRQAPGQGLEWMGEIYPNSGVSRYNEKFKGRVTMTVDKSISTAYMELSRLRSDDTAVYYCTKYFGYTYWFGYWGQGTLVTVSSASTKGPSVFPLAPSSKSTSGGTAALGCLVKDYFPEPVTVSWNSGALTSGVHTFPAVLQSSGLYSLSSVVTVPSSSLGTQTYICNVNHKPSNTKVDKRV[not shown - human IgG1 Fc]GGGGSTAGHTQTSTGGGAITTGTSGAGHGPQLCKFCDVRFSTCDNQKSCMSNCSITSICEKPQEVCVAVWRKNDENITLETVCHDPKLPYHDFILEDAASPKCIMKEKKKPGETFFMCSCSSDECNDNIIFSEEYNTSNPD
light: DIQMTQSPSSLSASVGDRVTITCRASKSVSTYMHWYQQKPGKQPKLLIYSASHLESGVPSRFSGSGSGTDFTLTISSLQPEDFATYYCQQSNELPVTFGGGTKVEIKRTVAAPSVFIFPPSDEQLKSGTASVVCLLNNFYPREAKVQWKVDNALQSGNSQESVTEQDSKDSTYSLSSTLTLSKADYEKHKVYACEVTHQGLSSPVTKSFNRGEC
notes: modified LP008-02; also called Molecule 2
With B1, the “IC50, TGF-β SBE luciferase reporter assay in 293 cells” value in the assay with human TGF-β protein is 0.143 nM. For the same molecule, the EC50 came to 0.767 nM with human TGF-β1 protein [1] and 0.278 nM in the assay with human TGF-β1 protein [2].

B2: LP008-02-4 (other)
heavy: EVQLVQSGAEVKKPGASVKVSCKASGYTFTDFWVSWVRQAPGQGLEWMGEIYPNSGVSRYNEKFKGRVTMTVDKSISTAYMELSRLRSDDTAVYYCTKYFGYTYWFGYWGQGTLVTVSSASTKGPSVFPLAPSSKSTSGGTAALGCLVKDYFPEPVTVSWNSGALTSGVHTFPAVLQSSGLYSLSSVVTVPSSSLGTQTYICNVNHKPSNTKVDKRV[not shown - human IgG1 Fc]GGGGSGGGGSGGGGSGGGGSGGGGSTAGHTQTSTGGGAITTGTSGAGHGPQLCKFCDVRFSTCDNQKSCMSNCSITSICEKPQEVCVAVWRKNDENITLETVCHDPKLPYHDFILEDAASPKCIMKEKKKPGETFFMCSCSSDECNDNIIFS
light: DIQMTQSPSSLSASVGDRVTITCRASKSVSTYMHWYQQKPGKQPKLLIYSASHLESGVPSRFSGSGSGTDFTLTISSLQPEDFATYYCQQSNELPVTFGGGTKVEIKRTVAAPSVFIFPPSDEQLKSGTASVVCLLNNFYPREAKVQWKVDNALQSGNSQESVTEQDSKDSTYSLSSTLTLSKADYEKHKVYACEVTHQGLSSPVTKSFNRGEC
notes: modified LP008-02; also called Molecule 4
On to B2, for which the “IC50, TGF-β SBE luciferase reporter assay in 293 cells” value with human TGF-β protein is 0.188 nM. The molecule also registered an EC50 in the assay with human TGF-β1 protein [1] of 0.874 nM.

B3: LP008-02-5 (other)
heavy: EVQLVQSGAEVKKPGASVKVSCKASGYTFTDFWVSWVRQAPGQGLEWMGEIYPNSGVSRYNEKFKGRVTMTVDKSISTAYMELSRLRSDDTAVYYCTKYFGYTYWFGYWGQGTLVTVSSASTKGPSVFPLAPSSKSTSGGTAALGCLVKDYFPEPVTVSWNSGALTSGVHTFPAVLQSSGLYSLSSVVTVPSSSLGTQTYICNVNHKPSNTKVDKRV[not shown - human IgG1 Fc]SGGGGSGGGGSGGGGSGGGGSGGGGSHYPQLCKFCDVRFSTCDNQKSCMSNCSITSICEKPQEVCVAVWRKNDENITLETVCHDPKLPYHDFILEDAASPKCIMKEKKKPGETFFMCSCSSDECNDNIIFS
light: DIQMTQSPSSLSASVGDRVTITCRASKSVSTYMHWYQQKPGKQPKLLIYSASHLESGVPSRFSGSGSGTDFTLTISSLQPEDFATYYCQQSNELPVTFGGGTKVEIKRTVAAPSVFIFPPSDEQLKSGTASVVCLLNNFYPREAKVQWKVDNALQSGNSQESVTEQDSKDSTYSLSSTLTLSKADYEKHKVYACEVTHQGLSSPVTKSFNRGEC
notes: modified LP008-02; also called Molecule 5
In the case of B3, the EC50 with human TGF-β1 protein [1] was 1.33 nM.

B4: LP008-06a (other)
heavy: EVQLVESGGGLVKPGGSLRLSCAASGFTFSNYWMTWIRQAPGKGLEWVASITNTGSSTFYPDSVKGRFTISRDNAKNSLYLQMNSLRAEDTAVYYCTRDTTIAPFDYWGQGTMVTVSSASTKGPSVFPLAPSSKSTSGGTAALGCLVKDYFPEPVTVSWNSGALTSGVHTFPAVLQSSGLYSLSSVVTVPSSSLGTQTYICNVNHKPSNTKVDKRV[not shown - human IgG1 Fc]GGGGSGGGGSGGGGSGGGGSGIPPHVQKSVNNDMIVTDNNGAVKFPQLCKFCDVRFSTCDNQKSCMSNCSITSICEKPQEVCVAVWRKNDENITLETVCHDPKLPYHDFILEDAASPKCIMKEKKKPGETFFMCSCSSDECNDNIIFSEEYNTSNPD
light: DIQMTQSPSSLSASVGDRVTITCKASQNLNEYLNWYQQKPGKAPKRLIYKTNTLQAGIPSRFSGSGSGTDYTLTISSLQPEDFATYYCSQYQSGNTFGQGTKLEIKRTVAAPSVFIFPPSDEQLKSGTASVVCLLNNFYPREAKVQWKVDNALQSGNSQESVTEQDSKDSTYSLSSTLTLSKADYEKHKVYACEVTHQGLSSPVTKSFNRGEC
notes: bifunctional anti-PD-L1 antibody / TGF-β RII extracellular domain fusion protein
In assay [3], B4 displayed a Kd of 0.0768 nM, a koff of 5.28e-05 s⁻¹ and a kon of 686000 M⁻¹ s⁻¹.

B5: LP008-06 (other)
heavy: EVQLVESGGGLVKPGGSLRLSCAASGFTFSNYWMTWIRQAPGKGLEWVASITNTGSSTFYPDSVKGRFTISRDNAKNSLYLQMNSLRAEDTAVYYCTRDTTIAPFDYWGQGTMVTVSSASTKGPSVFPLAPSSKSTSGGTAALGCLVKDYFPEPVTVSWNSGALTSGVHTFPAVLQSSGLYSLSSVVTVPSSSLGTQTYICNVNHKPSNTKVDKRV[not shown - human IgG1 Fc]GGGGSGGGGSGGGGSGGGGSGIPPHVQKSVNNDMIVTDNNGAVKFPQLCKFCDVRFSTCDNQKSCMSNCSITSICEKPQEVCVAVWRKNDENITLETVCHDPKLPYHDFILEDAASPKCIMKEKKKPGETFFMCSCSSDECNDNIIFSEEYNTSNPD
light: DIQMTQSPSSLSASVGDRVTITCKASQNLNEYLNWYQQKPGKAPKRLIYKTNTLQAGIPSRFSGSGSGTDYTLTISSLQPEDFATYYCSQYNSGNTFGQGTKLEIKRTVAAPSVFIFPPSDEQLKSGTASVVCLLNNFYPREAKVQWKVDNALQSGNSQESVTEQDSKDSTYSLSSTLTLSKADYEKHKVYACEVTHQGLSSPVTKSFNRGEC
notes: as for B4
In assay [3], B5 registered a Kd of 0.0756 nM, a koff of 5.92e-05 s⁻¹ and a kon of 783000 M⁻¹ s⁻¹.

B6: LP008-06a-DA (other)
heavy: EVQLVESGGGLVKPGGSLRLSCAASGFTFSNYWMTWIRQAPGKGLEWVASITNTGSSTFYPDAVKGRFTISRDNAKNSLYLQMNSLRAEDTAVYYCTRDTTIAPFDYWGQGTMVTVSSASTKGPSVFPLAPSSKSTSGGTAALGCLVKDYFPEPVTVSWNSGALTSGVHTFPAVLQSSGLYSLSSVVTVPSSSLGTQTYICNVNHKPSNTKVDKRV[not shown - human IgG1 Fc]GGGGSGGGGSGGGGSGGGGSGIPPHVQKSVNNDMIVTDNNGAVKFPQLCKFCDVRFSTCDNQKSCMSNCSITSICEKPQEVCVAVWRKNDENITLETVCHDPKLPYHDFILEDAASPKCIMKEKKKPGETFFMCSCSSDECNDNIIFSEEYNTSNPD
light: DIQMTQSPSSLSASVGDRVTITCKASQNLNEYLNWYQQKPGKAPKRLIYKTNTLQAGIPSRFSGSGSGTDYTLTISSLQPEDFATYYCSQYQSGNTFGQGTKLEIKRTVAAPSVFIFPPSDEQLKSGTASVVCLLNNFYPREAKVQWKVDNALQSGNSQESVTEQDSKDSTYSLSSTLTLSKADYEKHKVYACEVTHQGLSSPVTKSFNRGEC
notes: as for B4
In assay [3], B6 displayed a Kd of 0.0725 nM, a koff of 4.8e-05 s⁻¹ and a kon of 661000 M⁻¹ s⁻¹.
